Results published in a collection of fitness landscapes (doi:10.1016/j.celrep.2020.107928).
Over roughly 81,000 sequences, “one-hybrid fitness for binding parS DNA” has its median near -0.17; the highest 2% begin near 0.51. Some of the results follow.

B1: Caulobacter ParB omega fusion; a variant is named by its letters at X, in order, B8GW30 (parent)
chain: MESVVVGEPGMSEGRRGLGRGLSALLGEVDAAPAQAPGEQLGGSREAPIEILQRNPDQPRRTFREEDLEDLSNSIREKGVLQPILVRPSPDTAGEYQIVAGERAWRAAQRAGLKTVPIMVRELDDLAVLEIGIIENVQRADLNVLEEALSYKVLMEKFERTQENIAQTIGKSXSHVANXMRLLXLPDEVQSYLVSGELTAXHARAIAAAADPVALAKQIIEGGLSVRETEALARKAPNLSAGKSKGGRPPRVKDTDTQALESDLSSVLGLDVSIDHRGSTGTLTITYATLEQLDDLCNRLTRGI

Variants of: B1
Experiment: one-hybrid fitness for binding parS DNA (scaled: cognate 1, non-cognate 0); higher = stronger binding
Conditions: with parS DNA site
How it was run: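 On M9-minus-histidine containing 0.1 mM IPTG and 5 mM 3-AT, E. coli USO cells with a HIS3 reporter, site 19 bp from the promoter, grew 48 hours at 37°C to select Caulobacter ParB libraries randomised at four specificity codons. Plasmids from before and after were Illumina-sequenced, with three replicate libraries pooled and variants under 10 reads left out. Fitness is the log change in variant-to-wild-type read ratio, rescaled against cognate and non-cognate.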

Variant | one-hybrid fitness for binding parS DNA
TMTI | ≤ 0.2
WMNG | ≤ 0.2
DKHG | ≤ 0.2
FLKS | ≤ 0.2
LPSD | ≤ 0.2
CNRR | ≤ 0.2
SLTM | ≤ 0.2
PDHD | ≤ 0.2
KNCI | ≤ 0.2
WVER | ≤ 0.2
WPAG | ≤ 0.2
MVNR | ≤ 0.2
RSHM | 0.324
NGLE | ≤ 0.2
HALS | ≤ 0.2
WCTM | ≤ 0.2
TSTI | ≤ 0.2
SRLN | ≤ 0.2
PSTF | ≤ 0.2
MKKL | ≤ 0.2
DPAC | ≤ 0.2

Variant | one-hybrid fitness for binding parS DNA
TNER | ≤ 0.2
LQNC | ≤ 0.2
EHVS | ≤ 0.2
LYYG | ≤ 0.2
SLPL | ≤ 0.2
RQIH | ≤ 0.2
LEIR | ≤ 0.2
IGAG | ≤ 0.2
PKMC | ≤ 0.2
CFDG | ≤ 0.2
PESL | ≤ 0.2
RWEW | ≤ 0.2
RYCF | ≤ 0.2
IRSV | ≤ 0.2
LYQS | ≤ 0.2
ILAI | ≤ 0.2
GIPT | ≤ 0.2
RQIF | ≤ 0.2
KETM | ≤ 0.2
QFKV | ≤ 0.2
TAML | ≤ 0.2

Variant | one-hybrid fitness for binding parS DNA
ENQG | ≤ 0.2
VPGG | ≤ 0.2
EMTR | ≤ 0.2
ATTT | ≤ 0.2
FKMG | ≤ 0.2
SDNC | ≤ 0.2
MALC | ≤ 0.2
MHTL | ≤ 0.2
VMPE | ≤ 0.2
ADRH | ≤ 0.2
QKRQ | ≤ 0.2
DEQS | ≤ 0.2
SIAT | ≤ 0.2
HTAL | ≤ 0.2
PHND | ≤ 0.2
YRNS | 0.291
SWWR | ≤ 0.2
FNEG | ≤ 0.2
VPPM | ≤ 0.2
GGNW | ≤ 0.2
CIDR | ≤ 0.2

Variant | one-hybrid fitness for binding parS DNA
GWLT | ≤ 0.2
QNNF | ≤ 0.2
QADF | ≤ 0.2
SYYR | ≤ 0.2
NATL | ≤ 0.2
SATH | ≤ 0.2
QQLQ | ≤ 0.2
QNEQ | ≤ 0.2
LHYN | ≤ 0.2
DWLT | ≤ 0.2
FAHL | ≤ 0.2
SGPN | ≤ 0.2
VRCT | ≤ 0.2
PEHA | ≤ 0.2
EDSC | ≤ 0.2
RPQY | ≤ 0.2
TRPT | ≤ 0.2
LHSI | ≤ 0.2
QYSD | ≤ 0.2
PENN | ≤ 0.2
NHQS | ≤ 0.2
